Data: the supplement of paper PMC11876631
Residue numbers refer to the chain shown, from its start. In names and notes the source's numbering stands. ± gives the standard deviation of the averaged measurements. Laboratory Escherichia coli strains with one amino-acid change in an essential protein, pooled on minimal glucose agar with carbenicillin or gentamicin at twice the control MIC (plus kanamycin and chloramphenicol for the plasmids), 48 h. Fold change of barcode share against drug-free plates; higher = less susceptible. Active = above 20 in both replicates (the paper's putatively resistant). '<' = one read or none on drug, '>' = one read or none on a drug-free plate. Shares are relative, so most strains fall below 1 when a few take over. Listed are strains with at least 15 reads on both drug-free plates, and hits; most hits rest on fewer reference reads. Replicate rank correlation about 0.5. Edits are read from barcodes.

B1: ribD L364W (protein)
chain: MQDEYYMARALKLAQRGRFTTHPNPNVGCVIVKDGEIVGEGYHQRAGEPHAEVHALRMAGEKAKGATAYVTLEPCSHHGRTPPCCDALIAAGVARVVASMQDPNPQVAGRGLYRLQQAGIDVSHGLMMSEAEQLNKGFLKRMRTGFPYIQLKLGASLDGRTAMASGESQWITSPQARRDVQLLRAQSHAILTSSATVLADDPALTVRWSELDEQTQALYPQQNLRQPIRIVIDSQNRVTPVHRIVQQPGETWFARTQEDSREWPETVRTLLIPEHKGHLDLVVLMMQLGKQQINSIWVEAGPTLAGALLQAGLVDELIVYIAPKLLGSDARGLCTLPGLEKLADAPQFKFKEIRHVGPDVCLHWVGA
B2: ribD M7Q (protein)
chain: B1 chain with M7Q, W364L
B3: ribD M7D (protein)
chain: B1 chain with M7D, W364L
B4: ribD M7P (protein)
chain: B1 chain with M7P, W364L
B5: ribD M7W (protein)
chain: B1 chain with M7W, W364L
B6: ribD M7A (protein)
chain: B1 chain with M7A, W364L
B7: ribD L364Q (protein)
chain: B1 chain with W364Q
B8: ribE I77A (protein)
chain: MNIIEANVATPDARVAITIARFNNFINDSLLEGAIDALKRIGQVKDENITVVWVPGAYELPLAAGALAKTGKYDAVAALGTVIRGGTAHFEYVAGGASNGLAHVAQDSEIPVAFGVLTTESIEQAIERAGTKAGNKGAEAALTALEMINVLKAIKA
B9: ribE L79Q (protein)
chain: B8 chain with A77I, L79Q
B10: ribE L79P (protein)
chain: B8 chain with A77I, L79P
B11: ribE I148W (protein)
chain: B8 chain with A77I, I148W
B12: ribE I77W (protein)
chain: B8 chain with A77W
B13: ribE I77Q (protein)
chain: B8 chain with A77Q
B14: ribE I19A (protein)
chain: B8 chain with I19A, A77I
B15: ribE L79A (protein)
chain: B8 chain with A77I, L79A
B16: ribE L79D (protein)
chain: B8 chain with A77I, L79D
B17: ribE I148Q (protein)
chain: B8 chain with A77I, I148Q

Biological target: Escherichia coli (laboratory strain)
Assay: barcode share on antibiotic plates over drug-free plates; higher = less susceptible
Method: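 A pool of E. coli strains, each edited to carry one amino-acid change in an essential protein, was grown for 48 h on minimal glucose agar with or without antibiotic; strain barcodes were sequenced; mean of two replicates.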

[1] = antibiotic: carbenicillin, 2× MIC (3.1 µg/mL)
[2] = antibiotic: gentamicin, 2× MIC (MIC 0.45 µg/mL)

Row | Protein | fold change of barcode share [1] | fold change of barcode share [2]
1 | B1 | 1.8001 ± 0.00063 | 768 [active]
2 | B2 | 0.263 ± 0.018 | –
3 | B3 | 0.377 ± 0.086 | 0.0968 ± 0.12
4 | B4 | 0.384 ± 0.14 | –
5 | B5 | 0.371 ± 0.034 | < 0.0189
6 | B6 | 0.407 ± 0.21 | < 0.018
7 | B7 | 0.41 ± 0.17 | 0.556 ± 0.31
8 | B8 | 0.475 ± 0.17 | –
9 | B9 | 0.315 ± 0.16 | –
10 | B10 | 0.227 ± 0.12 | < 0.0199
11 | B11 | 0.269 ± 0.16 | < 0.00953
12 | B12 | 0.873 ± 0.046 | < 0.0096
13 | B13 | 0.282 ± 0.21 | < 0.0108
14 | B14 | 0.579 ± 0.1 | < 0.00301
15 | B15 | 0.365 ± 0.15 | 0.37 ± 0.066
16 | B16 | 0.226 ± 0.19 | –
17 | B17 | 0.435 ± 0.2 | 0.0221 ± 0.0091
